The source of these data is PMC8565340.

Sequences of proteins named here, by UniProt entry; tags and fusion partners are left off.
UniProt P31749: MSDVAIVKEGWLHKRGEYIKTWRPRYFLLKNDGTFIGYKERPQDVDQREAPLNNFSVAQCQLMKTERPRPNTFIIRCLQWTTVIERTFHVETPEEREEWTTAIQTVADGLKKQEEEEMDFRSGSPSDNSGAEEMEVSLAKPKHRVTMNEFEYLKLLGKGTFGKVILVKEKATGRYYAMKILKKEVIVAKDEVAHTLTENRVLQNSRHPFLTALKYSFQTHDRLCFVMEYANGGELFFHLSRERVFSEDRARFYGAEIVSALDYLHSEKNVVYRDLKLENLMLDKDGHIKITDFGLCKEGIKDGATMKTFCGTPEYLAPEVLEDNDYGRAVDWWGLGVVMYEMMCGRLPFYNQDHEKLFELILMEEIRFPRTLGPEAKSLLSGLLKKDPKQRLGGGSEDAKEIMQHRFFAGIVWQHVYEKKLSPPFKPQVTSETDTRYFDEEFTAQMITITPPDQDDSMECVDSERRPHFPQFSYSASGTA
UniProt Q00987: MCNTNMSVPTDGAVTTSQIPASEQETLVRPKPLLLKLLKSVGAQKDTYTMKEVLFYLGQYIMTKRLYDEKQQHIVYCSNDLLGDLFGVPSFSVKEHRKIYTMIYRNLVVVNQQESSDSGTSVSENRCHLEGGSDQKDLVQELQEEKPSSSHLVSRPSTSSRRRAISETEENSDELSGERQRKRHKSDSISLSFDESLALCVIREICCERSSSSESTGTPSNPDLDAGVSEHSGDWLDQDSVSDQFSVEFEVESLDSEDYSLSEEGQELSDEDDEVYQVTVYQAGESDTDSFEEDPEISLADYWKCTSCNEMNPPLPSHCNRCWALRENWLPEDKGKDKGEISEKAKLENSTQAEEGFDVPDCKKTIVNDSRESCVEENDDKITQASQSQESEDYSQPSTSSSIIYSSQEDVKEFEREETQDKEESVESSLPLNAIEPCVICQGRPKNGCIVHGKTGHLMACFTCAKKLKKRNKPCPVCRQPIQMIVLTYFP
UniProt Q9HAU5: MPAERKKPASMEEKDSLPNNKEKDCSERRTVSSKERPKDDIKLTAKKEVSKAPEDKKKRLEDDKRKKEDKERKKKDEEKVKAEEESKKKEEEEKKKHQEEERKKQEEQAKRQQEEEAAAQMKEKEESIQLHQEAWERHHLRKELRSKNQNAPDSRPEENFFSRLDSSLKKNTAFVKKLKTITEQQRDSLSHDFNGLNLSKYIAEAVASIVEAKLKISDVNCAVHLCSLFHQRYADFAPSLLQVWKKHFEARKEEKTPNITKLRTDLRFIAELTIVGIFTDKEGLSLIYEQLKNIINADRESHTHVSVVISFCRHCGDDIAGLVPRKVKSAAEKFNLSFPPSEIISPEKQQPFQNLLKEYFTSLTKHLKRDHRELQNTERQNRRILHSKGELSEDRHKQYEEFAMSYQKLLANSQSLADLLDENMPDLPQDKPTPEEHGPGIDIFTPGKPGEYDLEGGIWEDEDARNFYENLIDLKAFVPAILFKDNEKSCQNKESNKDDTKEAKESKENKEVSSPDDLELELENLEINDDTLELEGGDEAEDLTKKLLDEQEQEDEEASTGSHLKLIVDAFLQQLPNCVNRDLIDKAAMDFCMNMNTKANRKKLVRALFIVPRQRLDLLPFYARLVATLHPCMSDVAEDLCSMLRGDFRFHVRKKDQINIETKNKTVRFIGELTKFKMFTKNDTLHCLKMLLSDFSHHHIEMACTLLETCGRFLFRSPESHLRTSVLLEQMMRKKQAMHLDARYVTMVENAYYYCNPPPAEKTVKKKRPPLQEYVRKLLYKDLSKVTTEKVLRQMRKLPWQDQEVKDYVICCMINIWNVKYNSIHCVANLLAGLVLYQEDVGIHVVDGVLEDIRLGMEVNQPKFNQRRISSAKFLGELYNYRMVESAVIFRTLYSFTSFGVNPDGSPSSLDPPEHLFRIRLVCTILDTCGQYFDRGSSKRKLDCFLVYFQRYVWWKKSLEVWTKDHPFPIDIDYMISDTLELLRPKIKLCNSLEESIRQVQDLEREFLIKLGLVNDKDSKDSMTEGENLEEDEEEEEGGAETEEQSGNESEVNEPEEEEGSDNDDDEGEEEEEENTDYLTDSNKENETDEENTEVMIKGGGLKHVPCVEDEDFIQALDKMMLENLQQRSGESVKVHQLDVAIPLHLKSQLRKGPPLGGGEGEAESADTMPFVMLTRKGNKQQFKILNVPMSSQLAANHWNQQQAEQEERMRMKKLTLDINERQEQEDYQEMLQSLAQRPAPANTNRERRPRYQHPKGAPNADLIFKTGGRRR
UniProt P06730: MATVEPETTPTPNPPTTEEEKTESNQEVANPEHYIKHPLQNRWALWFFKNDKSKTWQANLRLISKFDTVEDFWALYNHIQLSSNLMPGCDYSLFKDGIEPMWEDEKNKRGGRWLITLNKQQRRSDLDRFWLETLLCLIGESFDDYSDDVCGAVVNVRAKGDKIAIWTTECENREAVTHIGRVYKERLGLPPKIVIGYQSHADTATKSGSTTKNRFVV

Results are given in words; binding and its absence hold for the method and conditions named. Binding seen in cells or lysates may run through a third protein. Some binding calls cover weakened binding; strength is not graded here.

For experiment [1], the target named is T1, UPF3X (human (endogenous in HEK293FT)) (UniProt Q9BZI7).
T1 sequence: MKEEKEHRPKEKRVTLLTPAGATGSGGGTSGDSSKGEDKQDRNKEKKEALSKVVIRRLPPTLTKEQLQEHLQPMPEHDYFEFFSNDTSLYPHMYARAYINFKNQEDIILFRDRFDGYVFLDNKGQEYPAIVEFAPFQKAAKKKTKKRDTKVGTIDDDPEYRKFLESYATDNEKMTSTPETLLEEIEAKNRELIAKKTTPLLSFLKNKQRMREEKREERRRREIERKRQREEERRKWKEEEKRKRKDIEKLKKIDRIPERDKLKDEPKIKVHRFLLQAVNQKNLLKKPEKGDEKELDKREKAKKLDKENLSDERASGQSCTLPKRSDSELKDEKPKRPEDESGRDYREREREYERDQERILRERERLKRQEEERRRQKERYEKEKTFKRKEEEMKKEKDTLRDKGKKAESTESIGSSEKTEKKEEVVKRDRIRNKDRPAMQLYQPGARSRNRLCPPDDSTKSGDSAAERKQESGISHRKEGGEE
The experiment is described as follows: co-IP; endogenous UPF3X immunoprecipitated from HEK293FT WT cell extract; lysis 50 mM Tris-HCl pH 7.4, 300 mM NaCl, 0.05% NP40; extracts incubated with RNase A or BSA; western blot. (In general: Immunoblotting shows a protein as a band on a membrane.)

Experiment [2] concerns the target AKT1 (human (endogenous in HEK293FT)) (UniProt P31749). Description: proximity ligation; Duolink in situ kit, antibodies to the endogenous proteins in cells; untreated cells and cells with control, UPF1 or UPF2 siRNA.
Experiment [3] shares this target. Description: co-IP; endogenous AKT1 immunoprecipitated from HEK293FT WT whole cell extract; lysis 25 mM Tris pH 7.5, 150 mM NaCl, 1 mM EDTA, 1% Triton X100; extracts incubated with RNase A or BSA; western blot.
Experiment [4] addresses T2, UPF1 (human (endogenous in HEK293FT)) (UniProt Q92900).
T2 sequence: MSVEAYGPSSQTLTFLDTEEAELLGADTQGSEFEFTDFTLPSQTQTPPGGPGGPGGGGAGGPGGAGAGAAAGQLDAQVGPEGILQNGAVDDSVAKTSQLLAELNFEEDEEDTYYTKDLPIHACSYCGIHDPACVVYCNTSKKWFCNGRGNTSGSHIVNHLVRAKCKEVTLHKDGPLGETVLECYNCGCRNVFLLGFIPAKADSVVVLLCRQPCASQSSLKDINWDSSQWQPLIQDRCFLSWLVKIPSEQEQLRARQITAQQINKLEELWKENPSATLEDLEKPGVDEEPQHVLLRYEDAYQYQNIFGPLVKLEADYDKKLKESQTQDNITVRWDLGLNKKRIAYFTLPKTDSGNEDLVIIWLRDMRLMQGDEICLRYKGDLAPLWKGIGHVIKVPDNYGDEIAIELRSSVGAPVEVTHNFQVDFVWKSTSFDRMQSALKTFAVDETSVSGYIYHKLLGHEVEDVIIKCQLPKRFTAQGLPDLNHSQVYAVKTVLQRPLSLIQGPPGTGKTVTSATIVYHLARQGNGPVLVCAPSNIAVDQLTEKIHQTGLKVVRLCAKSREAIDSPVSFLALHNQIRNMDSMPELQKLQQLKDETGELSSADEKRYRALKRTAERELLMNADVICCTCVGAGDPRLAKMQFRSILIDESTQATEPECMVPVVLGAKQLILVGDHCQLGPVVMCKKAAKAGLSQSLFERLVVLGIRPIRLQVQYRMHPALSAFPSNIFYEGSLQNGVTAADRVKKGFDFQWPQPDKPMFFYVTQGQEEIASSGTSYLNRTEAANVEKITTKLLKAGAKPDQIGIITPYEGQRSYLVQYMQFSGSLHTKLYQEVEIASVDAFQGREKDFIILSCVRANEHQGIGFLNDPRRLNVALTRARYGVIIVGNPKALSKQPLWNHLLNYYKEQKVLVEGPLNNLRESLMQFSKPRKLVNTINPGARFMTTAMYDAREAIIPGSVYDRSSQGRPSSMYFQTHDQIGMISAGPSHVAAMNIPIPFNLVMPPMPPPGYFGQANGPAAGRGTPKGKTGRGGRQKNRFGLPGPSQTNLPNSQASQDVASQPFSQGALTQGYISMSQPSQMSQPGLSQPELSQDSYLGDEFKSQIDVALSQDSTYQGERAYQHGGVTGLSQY
The experiment is described as follows: co-IP; endogenous UPF1 immunoprecipitated from HEK293FT WT cells transfected with Globin Ter plasmid (stimulation of NMD); extracts incubated with RNase A or BSA; western blot.

The target in experiment [5] is T2, UPF1 (human (endogenous in HEK293FT)). Description: co-IP; endogenous UPF1 immunoprecipitated from HEK293FT WT cell extract without stimulation of NMD; lysis 50 mM Tris-HCl pH 7.4, 300 mM NaCl, 0.05% NP40; western blot.
Experiment [6] concerns the target AKT1 (human (endogenous in HEK293FT)) (UniProt P31749). The experiment is described as follows: co-IP; endogenous AKT1 immunoprecipitated from the cytoplasmic fraction of HEK293FT WT cells transfected with Globin Ter; control or UPF1 siRNA; western blot.

In the case of “AKT1 (from UniProt P31749 1-480) (enzyme)”, the binding entry in experiment [1] is given as “binds”.
On to “E3 ubiquitin-protein ligase mouse double minute 2 (MDM2) (from UniProt Q00987 1-491)”, for which the binding entry in experiment [2] and in experiment [3] was “binds” throughout.
On to UPF2 (from UniProt Q9HAU5 1-1272), for which the binding result is recorded as “no binding” in experiment [2]; “binds” in experiment [4]; “binds” in experiment [5]; “binds” in experiment [1]; “no binding” in experiment [3].
Regarding eIF4E (from UniProt P06730 1-217), the binding result in experiment [2], in experiment [4], in experiment [5] and in experiment [3] was “no binding” each time.

B1: UPF3X (protein, UniProt Q9BZI7 1-483)
chain: MKEEKEHRPKEKRVTLLTPAGATGSGGGTSGDSSKGEDKQDRNKEKKEALSKVVIRRLPPTLTKEQLQEHLQPMPEHDYFEFFSNDTSLYPHMYARAYINFKNQEDIILFRDRFDGYVFLDNKGQEYPAIVEFAPFQKAAKKKTKKRDTKVGTIDDDPEYRKFLESYATDNEKMTSTPETLLEEIEAKNRELIAKKTTPLLSFLKNKQRMREEKREERRRREIERKRQREEERRKWKEEEKRKRKDIEKLKKIDRIPERDKLKDEPKIKVHRFLLQAVNQKNLLKKPEKGDEKELDKREKAKKLDKENLSDERASGQSCTLPKRSDSELKDEKPKRPEDESGRDYREREREYERDQERILRERERLKRQEEERRRQKERYEKEKTFKRKEEEMKKEKDTLRDKGKKAESTESIGSSEKTEKKEEVVKRDRIRNKDRPAMQLYQPGARSRNRLCPPDDSTKSGDSAAERKQESGISHRKEGGEE
For B1, the binding entry in experiment [2], in experiment [6], in experiment [4], in experiment [5] and in experiment [3] was “binds” throughout.

B2: UPF1 (protein, UniProt Q92900 1-1129)
chain: MSVEAYGPSSQTLTFLDTEEAELLGADTQGSEFEFTDFTLPSQTQTPPGGPGGPGGGGAGGPGGAGAGAAAGQLDAQVGPEGILQNGAVDDSVAKTSQLLAELNFEEDEEDTYYTKDLPIHACSYCGIHDPACVVYCNTSKKWFCNGRGNTSGSHIVNHLVRAKCKEVTLHKDGPLGETVLECYNCGCRNVFLLGFIPAKADSVVVLLCRQPCASQSSLKDINWDSSQWQPLIQDRCFLSWLVKIPSEQEQLRARQITAQQINKLEELWKENPSATLEDLEKPGVDEEPQHVLLRYEDAYQYQNIFGPLVKLEADYDKKLKESQTQDNITVRWDLGLNKKRIAYFTLPKTDSGNEDLVIIWLRDMRLMQGDEICLRYKGDLAPLWKGIGHVIKVPDNYGDEIAIELRSSVGAPVEVTHNFQVDFVWKSTSFDRMQSALKTFAVDETSVSGYIYHKLLGHEVEDVIIKCQLPKRFTAQGLPDLNHSQVYAVKTVLQRPLSLIQGPPGTGKTVTSATIVYHLARQGNGPVLVCAPSNIAVDQLTEKIHQTGLKVVRLCAKSREAIDSPVSFLALHNQIRNMDSMPELQKLQQLKDETGELSSADEKRYRALKRTAERELLMNADVICCTCVGAGDPRLAKMQFRSILIDESTQATEPECMVPVVLGAKQLILVGDHCQLGPVVMCKKAAKAGLSQSLFERLVVLGIRPIRLQVQYRMHPALSAFPSNIFYEGSLQNGVTAADRVKKGFDFQWPQPDKPMFFYVTQGQEEIASSGTSYLNRTEAANVEKITTKLLKAGAKPDQIGIITPYEGQRSYLVQYMQFSGSLHTKLYQEVEIASVDAFQGREKDFIILSCVRANEHQGIGFLNDPRRLNVALTRARYGVIIVGNPKALSKQPLWNHLLNYYKEQKVLVEGPLNNLRESLMQFSKPRKLVNTINPGARFMTTAMYDAREAIIPGSVYDRSSQGRPSSMYFQTHDQIGMISAGPSHVAAMNIPIPFNLVMPPMPPPGYFGQANGPAAGRGTPKGKTGRGGRQKNRFGLPGPSQTNLPNSQASQDVASQPFSQGALTQGYISMSQPSQMSQPGLSQPELSQDSYLGDEFKSQIDVALSQDSTYQGERAYQHGGVTGLSQY
Consider B2, for which the binding entry in experiment [1] is recorded as “binds”.
